The source of these data is PubChem BioAssay AID463173 (ICCB-Longwood Screening Facility, Harvard Medical School, 2010).

Molecules are shown by their SMILES. The campaign covered roughly 52,000 compounds. About 1,700 (3.3%) were called active. No stated cut-off is given here; in the data, active means survival mostly below about 52% (no sharp cut-off); inactive means mostly above about 56%. The list shows a part of the results.

This test deals with Wild type. Briefly: growth inhibition of S. aureus wild type versus tarO mutant, primary screen, teichoic acid synthesis inhibitors, RN4220, OD600 (AID 463173). As to conditions: S. aureus RN4220 wild type/DeltatarO growth, OD600, 18 h, stronger effect = lower value, screened at 18.75 µg/mL (by protocol).
For the molecule `CCCCc1nn2c(=O)cc(COC(=O)c3ccco3)nc2s1`, the survival was inactive: 73%.
To `COc1ccc(-c2nc(CCNC(=O)c3c(F)cccc3Cl)cs2)cc1` belongs inactive: 121%; to `CC1CCN(C(=O)Cn2cc(SCC(=O)Nc3ccccc3C(F)(F)F)c3ccccc32)CC1`, inactive: 105%; to `CCN(CC)C(=O)CSc1nc(C)cc(C)n1`, inactive: 118%.
To `Cc1cccc(NC(=O)C2CCCN(S(=O)(=O)c3c(C)n[nH]c3C)C2)c1` (centres undefined) belongs inactive: 140%; to `CCC(C(=O)Nc1ccccc1)n1nc(-c2cc(C)ccc2C)ccc1=O` (centres undefined), inactive: 74%; to `Cc1ccccc1Nc1c(-c2cccnc2)nc2cccc(C)n12`, inactive: 90%.
To `CCOc1ccc(-n2c(=O)c3c(C)c(C)sc3n(CC(=O)Nc3ccc(CC)cc3)c2=O)cc1` belongs inactive: 71%; to `CCN1C(=O)N(c2ccc(C(C)=O)cc2)S(=O)(=O)c2ccccc21`, inactive: 51%.
As to `CSc1ccc(CCNC(=O)Cn2ncn3c(cc4ccccc43)c2=O)cc1`, the survival was inactive: 77%.
For `Cc1ccc(CN2C(=O)C(=O)c3cc(Br)cc(C)c32)cc1`, the survival was inactive: 40%.
To `CCN(C(=O)c1cc2c(=O)n(CC)c3ccccc3c2s1)c1cccc(C(F)(F)F)c1` belongs inactive: 89%; to `Cn1nc(-c2ccc(OCC(=O)Nc3ccc(Cl)cc3)cc2)c2ccccc2c1=O`, inactive: 111%; to `CC1C(=NO)C(C)C(c2ccccc2)NC1c1ccccc1` (centres undefined), inactive: 113%.
`Cc1cccc(-c2cc3nc(C)cc(NCCCn4ccnc4)n3n2)c1`: the survival was inactive: 115%.
To `O=C1NC2(CCCCC2)C(=O)N1c1ccc(Cl)cc1` belongs inactive: 120%.
To `COc1ccc(Br)cc1CNC(=O)c1cnc2sc(N3CCCCCC3)nn2c1=O` belongs inactive: 78%; to `Cc1ccc(-c2nc(CCNC(=O)C(=O)Nc3ccc(C)c(Cl)c3)cs2)cc1`, inactive: 47%.
The result for `CCCOc1ccc(CNC(=O)CCCN2C(=O)CSc3c2c(C)nn3-c2ccccc2)cc1` reads inactive: 82%; that for `COc1ccccc1C(=O)Nc1ccccc1C(=O)OCc1cc(=O)n2ccsc2n1`, active: -6%; that for `CCOC(=O)c1sc(NC(=O)c2nc3nc(C)cc(C(F)F)n3n2)c(C(=O)OC(C)C)c1C`, inactive: 68%.
On to `COc1ccc(C2(N3CCN(c4cc(C)ccc4C)CC3)C(=O)c3ccccc3C2=O)cc1`, for which the survival is inactive: 84%.
Take `CCOc1ccccc1NC(=O)CSc1nc2cc(OC)c(OC)cc2c2nc(CCn3c(C)nc4ccccc43)nn12`: the survival was inactive: 77%.
To `CCCN(CCC)C(=O)Cn1c(SCc2cccc(F)c2)nc2cccnc21` belongs inactive: 65%.
To `N#Cc1cccc(NC(=O)C2CCN(S(=O)(=O)c3ccc4c(c3)CCCN4C(=O)C3CCC3)CC2)c1` belongs inactive: 68%; to `Cc1ccc2oc(C(=O)NCC(c3ccc(Cl)cc3)N3CCOCC3)c(C)c2c1` (centres undefined), inactive: 61%; to `Cc1nc(-c2ccc(F)cc2)sc1CCNC(=O)c1ccccc1C(F)(F)F`, inactive: 113%.
Consider `CCc1ccc(C2C(C#N)=C(N)OC(C)=C2C(=O)OC)cc1` (centres undefined), for which the survival was inactive: 108%.
For the molecule `Cc1ccc(CNC(=O)c2cc3c(=O)n4cccc(C)c4nc3s2)cc1`, the survival was inactive: 86%.
Consider `Cc1ccc(CNC(=O)CN2C(=O)C3CCCCN3c3ccc(C(=O)N(C)C)cc32)cc1` (centres undefined), for which the survival was inactive: 78%.
To `COc1ccccc1NC(=O)CN1C(=O)C(C)(C)c2ccccc21` belongs inactive: 87%; to `CN(C)c1cc(N)c2ccccc2n1`, inactive: 113%.
On to `Cc1ccc(S(N)(=O)=O)cc1NC(=O)c1c(-c2c(Cl)cccc2Cl)noc1C`, for which the survival was inactive: 75%.
Regarding `Cc1cccc(CSc2ncc(Cl)c(C(=O)Nc3nnc(C)s3)n2)c1`, the survival was inactive: 75%.
As for `CC1=C(C(=O)Nc2ccccc2C)C(c2sccc2C)n2ncnc2N1` (centres undefined), the survival was inactive: 69%.
To `Cc1ccccc1CSc1nc2c([nH]c3ccccc32)c(=O)n1-c1ccccc1` belongs inactive: 133%; to `CCN(CC)CCNC(=O)CN1C(=O)CSc2ccc(S(=O)(=O)N3CCOCC3)cc21`, inactive: 73%; to `Cc1ccc(/C=C/c2onc(C)c2S(=O)(=O)N2CCC(C(=O)Nc3cccc(C#N)c3)CC2)cc1`, inactive: 70%.
Consider `CCOC(=O)COc1ccc(CC)cc1C(=O)c1ccn2nc(-c3ccc(C)cc3)cc2n1`, for which the survival is inactive: 105%.
The result for `CCOc1ccc(-c2cc(NC(=O)Nc3ccccc3Cl)c(C(=O)OC)s2)cc1` reads inactive: 50%.
For the molecule `O=C(NCCCN1CCN(c2ccccc2F)CC1)c1ccc2nc(Cc3ccccc3)oc2c1`, the survival was inactive: 64%.
Consider `Cc1ccc(-c2nnc(Nc3ccc(F)cc3)c3ccccc23)cc1S(=O)(=O)NC(C)C`, for which the survival is inactive: 81%.
For the molecule `Cc1ccc(C(=O)N2CCN(c3ccccc3)CC2)cc1NC(=O)c1nsc2ccccc12`, the survival is inactive: 73%.
As for `N#Cc1c(C(F)(F)F)cc(-c2cccs2)nc1SCC(=O)Nc1cccc(Br)c1`, the survival was inactive: 81%.
Consider `CCc1nnc2c(NCc3ccccc3)nc3ccccc3n12`, for which the survival was inactive: 94%.
The result for `CCN(CC)S(=O)(=O)c1ccc2c(c1)c(=O)c(C(=O)N1CCN(c3ccc(OC)cc3)CC1)cn2C` reads inactive: 78%; that for `CCc1ccccc1NC(=O)c1nc2nc(C)cc(C(F)F)n2n1`, inactive: 74%; that for `CCCN(CCC)CCCNC(=O)Cn1ncn2c(cc3sc(CC)cc32)c1=O`, inactive: 80%.
Consider `Cc1ccc(CNC(=O)CN2N=C(c3ccc(C)cc3)CCC2=O)cc1`, for which the survival is inactive: 80%.
For the molecule `CC(C)c1ccc(NC(=O)C2CCCN(S(=O)(=O)c3ccc4[nH]c(=O)oc4c3)C2)cc1` (centres undefined), the survival is inactive: 51%.
To `Cc1cccc(-c2nnc(SCC(=O)Nc3ccc(C)c(C)c3)o2)c1` belongs inactive: 87%; to `Cc1nnc(C)c2c(C)n(-c3ccc4c(c3)OCO4)c(C)c12`, inactive: 111%.
In the case of `Cn1c(-c2cccc(Br)c2)cnc1NCc1cccc(F)c1`, the survival was inactive: 27%.
The result for `CCCS(=O)(=O)c1c(S(=O)(=O)CCC)c2cc(C(C)(C)C)ccn2c1C(=O)c1ccc(C)cc1` reads inactive: 78%; that for `O=C(/C=C/c1ccco1)OCCN1CCOCC1`, inactive: 92%.
To `COc1cc(SC)ccc1C(=O)N1CCn2c3c(c4cc(C)ccc42)CCCC31` (centres undefined) belongs inactive: 85%.
The result for `COc1ccc(Nc2nnc(-c3cc4cc(Cl)ccc4oc3=O)s2)cc1` reads inactive: 73%; that for `COc1cccc(CN2C(=O)c3ccccc3C2C(=O)NCCc2ccccc2)c1` (centres undefined), inactive: 90%.
As to `CCC(C)NC(=O)c1ccc(Cn2c(=O)c3cccn3c3cccnc32)cc1` (centres undefined), the survival is inactive: 118%.
To `Cc1ccc(C(=O)Nc2c(C)nc3ccccn3c2=O)cc1` belongs inactive: 88%; to `Cc1ccc(C)c(N2CCN(C(=O)CCc3c(C)nn(-c4ccc(N5CCCC5)nn4)c3C)CC2)c1`, inactive: 77%; to `Cc1ccc(N2C(=O)SC(N(C)c3ccccc3)C2=O)cc1` (centres undefined), inactive: 112%.
As for `COc1ccccc1CNC(=O)CSc1nc2nc(C)c(Cc3ccccc3C)c(C)n2n1`, the survival is inactive: 135%.
Turning to `O=C(NCc1ccc(Cl)cc1)C1CCN(C(=O)c2cnn(-c3ccccc3)c2-n2cccc2)CC1`, the survival is inactive: 87%.
`CCOc1ccc(CNC(=O)Cn2nc(N3CCN(c4ccccc4)CC3)ccc2=O)cc1`: the survival is inactive: 81%.
`Oc1c(C(c2cccc(Br)c2)N2CCCC2)sc2nc(-c3ccco3)nn12` (centres undefined): the survival was inactive: 77%.
To `O=C(CCCCCn1c(=O)[nH]c2ccsc2c1=O)NCc1ccccc1` belongs inactive: 86%; to `CCn1c(SCc2ccccc2)nnc1C1CCCCC1`, inactive: 106%; to `Cc1cccc(N2C(=O)C(CC(=O)Nc3ccccc3)N(C3CCCCC3)C2=O)c1` (centres undefined), inactive: 82%.
As for `COc1ccccc1NC(=O)C1=C(C)NC2=C(C(=O)CCC2)C1c1cc2c(cc1Br)OCO2` (centres undefined), the survival was inactive: 103%.
The result for `COc1cccc(C(=O)Nc2nc3nc(C)c(Cc4ccccc4)c(=O)n3[nH]2)c1` reads inactive: 105%.
The result for `CCOC(=O)c1c(C)[nH]c(C)c1S(=O)(=O)N(C)CC(=O)N1CCN(c2cccc(C)c2C)CC1` reads inactive: 72%; that for `COC(=O)c1ccc(NC(=O)CC2C(=O)N(c3cccc(C)c3)C(=O)N2Cc2ccco2)cc1` (centres undefined), inactive: 81%.
For `CCOC(=O)c1c(C)oc2nc(C)nc(NCCCN3CCN(c4ccccc4OC)CC3)c12`, the survival was inactive: 81%.
On to `Cc1nn(C)c2c1c(-c1ccccc1)cc(=O)n2Cc1ccc(Br)cc1F`, for which the survival is inactive: 78%.
With `COc1ccccc1C(=O)Nc1ccccc1C(=O)OCc1cc(=O)n2c(C)csc2n1`, the survival was inactive: 131%.
As for `O=C(c1cc2ccccc2oc1=O)N1CCCC1`, the survival is inactive: 99%.
For the molecule `Cc1ccc(OCC(=O)N(Cc2ccc(N(C)C)cc2)CC2CCCO2)cc1C` (centres undefined), the survival was inactive: 82%.
The result for `CCCCOc1ccc(NC(=O)c2cc3c(n(-c4ccc(Cl)cc4)c2=O)CCCC3=O)cc1` reads inactive: 148%; that for `Cc1ccc(CNC(=O)CCCn2c(=O)c3ccccc3n(Cc3ccccc3Cl)c2=O)cc1`, inactive: 126%; that for `O=C(c1cccc([N+](=O)[O-])c1)N1c2nc(-c3ccco3)nn2C2(CCCCC2)[C@@H]2CCCC[C@@H]21`, inactive: 62%.
To `COc1ccc(-c2cc(C(F)(F)F)nc(SCC(=O)N3CCCCC3)n2)cc1` belongs inactive: 97%; to `O=C(Cn1c(=O)n(CCCS(=O)(=O)C2CCCCC2)c(=O)c2ccccc21)Nc1ccccc1F`, inactive: 70%.
To `Cc1cc(C(=O)Nc2cccc(C(F)(F)F)c2)c2c(C)nn(-c3cccc(F)c3)c2n1` belongs active: -1%; to `Cc1nn2c3c(cnc2c1-c1ccc(F)cc1)C(=O)CC(c1ccccc1)C3` (centres undefined), inactive: 71%.
Take `COc1cccc(CNC(=O)C2CCCN(S(=O)(=O)c3ccc4c(ccn4C)c3)C2)c1OC` (centres undefined): the survival is inactive: 78%.
Consider `Cc1cc(C)c(-c2csc(-c3cc4ccccc4oc3=O)n2)cc1C`, for which the survival was inactive: 55%.
`CCCN1CCN(CCNC(=O)Nc2cc(Cl)c(OC)cc2OC)CC1`: the survival was inactive: 94%.
To `CC(=O)Nc1ccc(NC(=O)CC(C)n2ccc(C)n2)cc1` (centres undefined) belongs inactive: 64%.
